About 50,000 (12%) of roughly 420,000 compounds were called active. The shares of active, inactive and inconclusive entries below differ from those in the screen. Calls come from the whole dose curve; as a rule, active = well fitted inhibition curve with a large enough effect; inconclusive = small, poorly fitted or top-dose-only effect; inactive = flat fitted curve, though single readings scatter. Potencies of inconclusive entries are left out as doubtful fits.
Test: qHTS for Inhibitors of human tyrosyl-DNA phosphodiesterase 1 (TDP1): qHTS in cells in presence of CPT; note: nearly all actives have a fitted effect of over 55% in size
Details: chicken DT40 Tdp1-/-;hTDP1 cells + 20 nM CPT, ATP luminescence, 48 h; series mostly up to 46.2 µM
How it was run: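 Chicken DT40 Tdp1-/- cells stably complemented with human TDP1 were seeded at 400 cells/well in medium containing 20 nM camptothecin, exposed to pin-transferred compounds, and grown at 37 °C for at least 48 hr. Viability was read as ATP luminescence.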
In the case of `CCCCn1c(SCC(=O)c2ccc(OCC)cc2)nc2cc(S(N)(=O)=O)ccc21`, the Potency is reported as inconclusive [inhibitor, single point]. In the case of `CC(=O)c1ccccc1OCc1ccc(S(=O)(=O)Cc2ccccc2)cc1`, the Potency is reported as active: 25.9 µM. In the case of `CC(C)(C)N=C1NN=C(c2cc3ccccc3o2)CS1`, the Potency is reported as inconclusive [inhibitor, single point]. For `CCCCCCC(=O)Oc1cccc(C2=CC(=O)CC(C)(C)C2=O)c1`, the Potency was inconclusive [inhibitor, single point]. In the case of `CCc1nc(CN2CCCC(C(=O)Nc3ccc(-c4cccc(OC)c4)cc3)C2)c(C)[nH]1` (configuration not stated), the Potency is reported as inconclusive [inhibitor, single point]. In the case of `Cc1c[n+](C)ccc1CC1C([N+](=O)[O-])=C[N-]c2ncnn21` (configuration not stated), the Potency is reported as “inactive”. With `CS(=O)(=O)c1ccc(-n2c(=O)n(Cc3ccccc3)c(=O)c3[nH]cnc32)cc1` the Potency was “inactive”. In the case of `COc1ccc(-c2ccc(SCc3ccccn3)nn2)cc1OC`, the Potency is reported as active: 13 µM. In the case of `Cc1ccc(S(=O)(=O)Nc2cc(C)c(O)cc2C)cc1`, the Potency is reported as inconclusive [inhibitor, single point]. For `Cc1oc(-c2ccc(Cl)cc2)nc1CSCC(=O)NC1CCN(Cc2ccccc2)CC1`, the Potency was inconclusive [inhibitor, single point]. For `Cc1cccc(C(=O)Nc2ccc(C(=O)N3CCCCC3C)cc2)c1` (configuration not stated), the Potency was “inactive”. In the case of `Cc1ccc(OCC(=O)N/N=C/c2cccc3cccnc23)cc1`, the Potency is reported as active: 23.1 µM. For `Cc1ccc(C(=O)N2CCN(c3ccc([N+](=O)[O-])cc3)CC2)o1`, the Potency was inconclusive [inhibitor, single point]. In the case of `CCOC(=O)c1sc(-c2ccccc2)cc1NC(=O)Nc1ccc([N+](=O)[O-])cc1`, the Potency is reported as inconclusive [inhibitor, single point]. For `C=CCN(c1ccc(F)cc1)S(=O)(=O)c1cc(C(=O)NC2CCC(O)CC2)ccc1Cl` (configuration not stated), the Potency was inconclusive [inhibitor, partial curve, poor fit]. With `COCCN(Cc1ccccc1)C(=O)c1cccc(S(=O)(=O)N2CCN(Cc3ccccc3)CC2)c1` the Potency was inconclusive [inhibitor, single point]. In the case of `COc1ccc2c(c1)C1(C)CC(C)(C)N2C(=O)N1c1ccccc1` (configuration not stated), the Potency is reported as inconclusive [inhibitor, single point]. In the case of `Cc1ccc(-c2nc(S(=O)(=O)c3ccc(F)cc3)c(N3CCN(c4ccccc4)CC3)o2)cc1`, the Potency is reported as inconclusive [inhibitor, partial curve, poor fit]. For `CC1CN(c2ccc([N+](=O)[O-])c(NCCOc3ccccc3)c2)CC(C)N1` (configuration not stated), the Potency was inconclusive [inhibitor, single point]. In the case of `Cc1ccnc(NC(=O)CCC(=O)N(CC(=O)NCc2ccc(F)cc2)c2ccc(F)cc2)c1`, the Potency is reported as “inactive”. In the case of `CC1Sc2n(c3ccccc3[n+]2C)N=C1c1ccccc1` (configuration not stated), the Potency is reported as active: 1.46 µM. In the case of `O=C(CSc1nc2ccccc2c(=O)[nH]1)Nc1ccc([N+](=O)[O-])cc1`, the Potency is reported as inconclusive [inhibitor, partial curve, poor fit]. In the case of `CC1=C(c2ccc(C(C)C)cc2)S(=O)(=O)N=C1N1CCN(c2ccccc2F)CC1`, the Potency is reported as inconclusive [inhibitor, single point]. In the case of `O=C(CSc1nc2ccccc2[nH]1)Nc1nc(-c2ccc(Br)cc2)cs1`, the Potency is reported as active: 23.1 µM. With `COc1ccc2[nH]c(=O)c(CN(C(=O)C3CCCO3)c3ccc(C)cc3)cc2c1` (configuration not stated) the Potency was inconclusive [inhibitor, partial curve]. With `COc1cc(NC(=O)Cn2nnc(-c3ccccc3N)n2)cc(OC)c1` the Potency was inconclusive [inhibitor, single point]. With `FC(F)(F)c1cc(-c2ccccc2)nc(-n2cncn2)n1` the Potency was “inactive”. For `Cc1ccc2nc(-c3ccc(C)c(NC(=O)COc4ccc(Cl)cc4)c3)oc2c1`, the Potency was inconclusive [inhibitor, full curve]. In the case of `CCN(CC)CCCNCC(=O)Nc1ccc2c(c1)CCC2`, the Potency is reported as “inactive”. In the case of `CCCS(=O)(=O)c1ccc(COC(=O)Cc2ccc([N+](=O)[O-])cc2)cc1`, the Potency is reported as inconclusive [inhibitor, single point]. In the case of `C=CCN1C2CCCC1CC(NC(=O)Nc1cc(C)cc(C)c1)C2` (configuration not stated), the Potency is reported as inconclusive [inhibitor, single point]. With `Cc1ccccc1Nc1nn2c(=O)c3ccc(C(=O)NCC(C)c4ccccc4)cc3nc2s1` (configuration not stated) the Potency was active: 14.6 µM. For `COCCn1nnnc1C(c1ccccn1)N1CCN(c2cc(Cl)ccc2C)CC1` (configuration not stated), the Potency was inconclusive [inhibitor, single point]. In the case of `O=[N+]([O-])c1ccccc1N(S(=O)(=O)c1ccccc1)S(=O)(=O)c1ccccc1`, the Potency is reported as inconclusive [inhibitor, single point]. With `Cc1ccc2nc(-c3ccc(Cl)cc3)c(Cc3cccc(Cl)c3)n2c1` the Potency was inconclusive [inhibitor, single point]. For `CCCS(=O)(=O)c1nc(S(=O)(=O)c2ccc(C)cc2)c(N2CC(C)OC(C)C2)s1` (configuration not stated), the Potency was inconclusive [inhibitor, partial curve]. With `CN(CCO)c1ccc2c(c1)OC[C@@H](Cc1ccccc1)NS2(=O)=O` the Potency was “inactive”. With `O=C(COC(=O)c1c[nH]c(=O)[nH]c1=O)Nc1ccccc1` the Potency was “inactive”. For `O=C(Nc1ccccc1)c1cnc(-c2ccccc2)nc1-c1ccccc1`, the Potency was inconclusive [inhibitor, single point]. For `Cc1ccc(C)c(N2CCN(C(=O)CCc3nnc4n(C)c(=O)c5ccccc5n34)CC2)c1`, the Potency was inconclusive [inhibitor, single point]. For `O=C1C[C@H](c2ccc(O)cc2)Oc2cc(O[C@@H]3O[C@H](CO)[C@@H](O)[C@H](O)[C@H]3O)cc(O[C@@H]3O[C@H](CO)[C@@H](O)[C@H](O)[C@H]3O)c21`, the Potency was “inactive”. With `N#CC1=C(N)NC(SCC(=O)c2ccc(Br)cc2)=C(C#N)C12CCCCC2` the Potency was inconclusive [inhibitor, single point].

— PubChem BioAssay AID686979 (National Center for Advancing Translational Sciences (NCATS), 2013)
Potency is the fitted concentration of half-maximal effect; tags give direction and shape of the fitted curve.
